Values joined by “and” are separate entries in the source; they are usually repeats but may differ in a detail not shown here. Equal entries are not always repeated. About 1,100 (1.5%) of roughly 74,000 compounds were called active. The inconclusive results got no clear call from the source; some entries with a clear call stand among them for comparison. Calls come from the whole dose curve; as a rule, active = well fitted inhibition curve with a large enough effect; inconclusive = small, poorly fitted or top-dose-only effect; inactive = no such curve, though single readings can be large or run the other way. Where the call is inconclusive, the potency comes from a doubtful curve fit.
Target: Polyunsaturated fatty acid lipoxygenase ALOX15 (Homo sapiens) (UniProt P16050)
UniProt P16050, sequence (P16050 whole entry, looked up): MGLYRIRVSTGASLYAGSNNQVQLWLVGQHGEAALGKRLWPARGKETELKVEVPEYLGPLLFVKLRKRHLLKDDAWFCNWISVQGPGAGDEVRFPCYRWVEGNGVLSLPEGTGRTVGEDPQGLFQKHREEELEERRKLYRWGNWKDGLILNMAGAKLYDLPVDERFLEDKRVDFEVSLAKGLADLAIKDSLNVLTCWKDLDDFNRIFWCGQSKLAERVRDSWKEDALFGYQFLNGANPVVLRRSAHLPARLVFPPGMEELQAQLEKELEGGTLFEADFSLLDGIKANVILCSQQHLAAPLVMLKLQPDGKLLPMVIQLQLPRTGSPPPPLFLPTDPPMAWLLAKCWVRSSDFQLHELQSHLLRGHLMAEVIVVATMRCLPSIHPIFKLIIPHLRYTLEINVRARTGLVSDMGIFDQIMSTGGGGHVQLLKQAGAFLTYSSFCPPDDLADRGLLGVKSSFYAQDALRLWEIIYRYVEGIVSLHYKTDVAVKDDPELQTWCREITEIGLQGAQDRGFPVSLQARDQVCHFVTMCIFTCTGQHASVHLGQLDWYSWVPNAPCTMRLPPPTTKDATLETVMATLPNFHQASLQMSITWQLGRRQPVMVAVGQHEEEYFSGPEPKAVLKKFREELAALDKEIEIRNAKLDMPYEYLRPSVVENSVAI
Assay: qHTS Assay for Inhibitors of 15-hLO (15-human lipoxygenase); note: nearly all actives have a fitted effect of over 55% in size
Conditions: purified 15hLO-1, xylenol orange hydroperoxide absorbance; activity change, negative = inhibition: at 57.1 µM (top of the series) unless noted
Method in brief: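 Purified human 15hLO-1 (40 nM final) in 25 mM Hepes pH 7.5, 0.01% Triton X-100 was preincubated with compound 15 min at room temperature, then reacted 6 min with 50 uM arachidonic acid; hydroperoxide detected by Fe-XO, 573/405 nm absorbance ratio.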
% is set by controls: 0 for no effect and ±100 for the full control effect; potency is the fitted concentration of half-maximal effect; tags give direction and shape of the fitted curve.

Structure (SMILES) | Potency | activity change, negative = inhibition
CCN(CC)CCOC(=O)C1(c2ccc([N+](=O)[O-])cc2)CCCC1 | inconclusive: 20 µM [inhibitor, single point] | –
Cc1cc(OC(=O)c2c(C)cc(O)cc2O)cc(O)c1C(=O)O | inconclusive: 39.8 µM [inhibitor, single point] | –
Cc1nc(NC2CCCCC2)c2nc(-c3ccccc3)n(CCCN(C)C)c2n1 | inactive | –
CC(=O)OC[C@H]1O[C@@H](O/N=C\[C@@H](C)[C@H](OCc2ccccc2)C(C)C)[C@H](OC(C)=O)[C@@H](OC(C)=O)[C@H]1OC(C)=O | – | inactive: 6.51% [at 11.4 µM]
Cc1c(NC(=O)c2ccco2)cccc1-c1nc2cccnc2s1 | inconclusive: 25.1 µM [inhibitor, single point] | –
c1ccc(CN(Cc2ccco2)C(c2ccncc2)c2nnnn2C2CCCC2)cc1 (stereo not given) | inconclusive: 25.1 µM [inhibitor, single point] | –
Nc1ccc(O)c(C(=O)O)c1 | inconclusive: 15.8 µM [inhibitor, single point] and inconclusive: 31.6 µM [inhibitor, partial curve] | –
CCCCc1ccc(Nc2nc(CCC)cc(=O)[nH]2)cc1 | inactive | –
Cc1ccc(C)c2nc(N3CCCC3)c(C#N)cc12 | active: 12.6 µM | –
CCN(CC)c1ccc(NC(=O)c2ccc(Br)o2)c(C)c1 | inconclusive: 25.1 µM [inhibitor, partial curve] | –
Cn1c2c(c3ccccc31)CC/C2=N\O | active: 25.1 µM | –
C=CCn1c(SCc2cc(=O)n3ccsc3n2)nc2scc(C3CC3)c2c1=O | inactive | –
Cn1c(C(=O)Nc2ccc3c(c2)OCO3)cc2c(=O)n(C)c3ccccc3c21 | inconclusive: 3.16 µM [inhibitor, partial curve] | –
CN1C(=O)c2ccc(N3CCCC3)cc2C1=O | inconclusive: 25.1 µM [inhibitor, single point] | –
CCNS(=O)(=O)c1ccc(NC(=O)Nc2cccc(C(F)(F)F)c2)cc1 | inconclusive: 10 µM [inhibitor, partial curve] | –
COc1cc(Cl)ccc1NC(=O)COc1ccccc1C(=O)N1CCN(c2ccc(O)cc2)CC1 | active: 25.1 µM | –
COc1ccc2[nH]cc(CCNc3ccnc(-c4ccc(N(C)C)cc4)n3)c2c1 | inconclusive: 39.8 µM [inhibitor, single point] | –
CC(C)=NO[C@@H](C)CN1CCCc2nc(C)c(C)cc21 | inconclusive: 7.94 µM [inhibitor, single point] | –
Cc1nc2ncnn2c(N2CCC(C(=O)NC3CCCC3)CC2)c1Cc1ccccc1 | inactive | –
CC(NC(=O)C1CC2CCCC(C1)C2=O)c1ccccc1 (stereo not given) | inconclusive: 7.94 µM [inhibitor, single point] | –
C=CCn1c2ccccc2c2nnc(SCC(=O)NC(C(=O)OC)C(C)C)nc21 (stereo not given) | inactive | –
COc1ccc(-n2nnnc2SCC(=O)c2cc3ccccc3o2)cc1 | inconclusive: 25.1 µM [inhibitor, single point] | –
COc1ccc([C@@H]2CNC(=O)C2)cc1OC1CCCC1 | inconclusive: 15.8 µM [inhibitor, partial curve, poor fit] and inconclusive: 12.6 µM [inhibitor, single point] | –

Structure (SMILES) | Potency | activity change, negative = inhibition
Cn1c(=O)c2c(nc(N3CCN(Cc4ccccc4)CC3)n2CCSc2ncccn2)n(C)c1=O | inconclusive: 25.1 µM [inhibitor, single point] | –
Cc1noc(C)c1-c1nccc(NCc2cccnc2)n1 | inactive | –
Cn1c(=O)c2c(nc(CN3CCc4ccccc4C3)n2Cc2ccccc2)n(C)c1=O | inconclusive: 39.8 µM [inhibitor, single point] | –
CC(C)C1CCC(C(=O)NC(Cc2ccccc2)C(=O)O)CC1 (stereo not given) | inactive | –
CCN(CC)S(=O)(=O)c1ccc(-c2nnc3sc4cccc(C)c4n23)cc1 | inactive | –
CCCCN1Cc2cc(C(=O)c3cc(F)ccc3O)cnc2NC1=O | inconclusive: 31.6 µM [inhibitor, single point] | –
COc1ccc(-c2coc3ccc(OC4OC(COC(C)=O)C(OC(C)=O)C(OC(C)=O)C4OC(C)=O)cc3c2=O)cc1 (stereo not given) | inactive | –
COc1cccc(C(c2nnnn2CCc2ccccc2)N2CCN(c3ccccc3)CC2)c1OC (stereo not given) | inactive | –
COC(=O)[C@H](CCSC)NC(=O)C/C=C\[C@@H](C)[C@@H](CO)OC | – | inactive: 5.45% [at 11.4 µM]
CN(C)CCNC(=O)c1ccc(-n2c(=O)c(=O)[nH]c3ccccc32)cc1 | inactive | –
COc1ccc(Nc2ncnc3c2cnn3Cc2ccccc2)cc1 | inconclusive: 31.6 µM [inhibitor, single point] | –
N#CC(C(=O)C12CC3CC(CC(C3)C1)C2)c1nc2ccccc2[nH]1 (stereo not given) | inactive | –
Cc1[nH]nc(-c2ccc(O)cc2O)c1-c1ccc(Cl)cc1 | inconclusive: 15.8 µM [inhibitor, partial curve] | –
CCCCOC(=O)Nc1ccc(C(=O)OCCC)cc1 | inactive | –
CCOC(=O)CSc1nc2ccc(N3CCOCC3)cc2c(=O)n1Cc1ccc2c(c1)OCO2 | active: 20 µM | –
CN1CCN(S(=O)(=O)c2cccc(C(=O)Nc3sc4c(c3C(N)=O)CCCC4)c2)CC1 | inconclusive: 25.1 µM [inhibitor, partial curve] | –
CCOc1ccc(S(=O)(=O)Nc2cccc(Cl)c2)cc1 | inconclusive: 31.6 µM [inhibitor, single point] | –
Cn1c(=O)c2c(nc(CN3CCc4ccccc4C3)n2Cc2ccc(F)cc2)n(C)c1=O | inconclusive: 25.1 µM [inhibitor, single point] | –
CCC(c1ccc(O)cc1)C(CC)c1ccc(O)cc1 (stereo not given) | inconclusive: 25.1 µM [inhibitor, single point] | –
O=C(O)C(Cc1cccs1)C(=O)O | – | inactive: 0.508% [at 11.4 µM]
Cn1c(=O)n2n(c1=O)[C@H]1[C@H](O)[C@H]3O[C@@H]3/C(=N/OC[C@@H](O)COCc3ccco3)[C@@H]1CC2 | – | inactive: 1.15% [at 11.4 µM]
CCN(CC)CCCC(C)n1c(-c2ccccc2)nc2c(N3CCOCC3)nc(C)nc21 (stereo not given) | inactive | –

Reference: PubChem BioAssay AID887 (National Center for Advancing Translational Sciences (NCATS), 2007)
